From US8241860B2, “Cell free methods for detecting protein-ligand binding” (The Arizona Board of Regents of Behalf of the University of …, priority 2007, dated 2012)

Columns and labels:
zinc finger/DNA = assay: Irrelevant zinc finger/DNA cell-free split-luciferase control assay; assay type: binding; settings: excess chetomin or PKI-peptide
[1] = target: interaction between HIF-1α and p300 (Homo sapiens, UniProt Q09472); assay: biochemical

CN1C(=O)[C@]2(Cc3cn([C@]45C[C@@]67SS[C@@](CO)(C(=O)N6[C@H]4Nc4ccccc45)N(C)C7=O)c4ccccc34)SS[C@@]1(CO)C(=O)N2C [chetomin]
effect on signal generation in the irrelevant zinc finger/DNA cell-free assay (zinc finger/DNA): no effect on signal generation
IC50 [1]: 290 nM
